Results as given in PubChem BioAssay AID1347417 (National Center for Advancing Translational Sciences (NCATS), 2020).
The campaign covered roughly 120,000 compounds. About 5,300 (4.4%) were called active. The shares of active, inactive and inconclusive entries below differ from those in the screen. The call rests on the fitted dose curve; in most records, active means well fitted inhibition curve with a large enough effect; inconclusive means small, poorly fitted or top-dose-only effect; inactive means no such curve, though single readings can be large or run the other way. Potencies of inconclusive entries are doubtful fits and often do not repeat.

assay: qHTS Primary assay for Inhibitors of Plasmodium falciparum Dd2 growth in vitro; further: nearly all actives have a fitted effect of over 65% in size; settings: P. falciparum Dd2 growth, SYBR Green, 72 h; series mostly up to 28.9 µM
Method in brief: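 Readout: SYBR Green fluorescence, 485 nm excitation, 535 nm emission, after ~16 h lysis at 37C. Before that, Dd2-infected red cells (2.5% hematocrit) grew 72 h with compound, 29 uM top final concentration.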
Potency means the concentration at half of the fitted maximal effect; tags describe the fitted curve by direction and shape.

Structure (SMILES)	Potency
CC1CCN(CC2CCCCCN2)CC1 (configuration not stated)	inactive
N#Cc1cccc(CN2CC[C@@H]3OCC(=O)N(Cc4ccccc4)[C@H]3CC2)c1	inconclusive: 7.08 µM [inhibitor, partial curve, poor fit]
CCOc1cc(-c2nnc(SCC(=O)NCc3ccccc3)nc2-c2ccc(OC)c(OCC)c2)ccc1OC	active: 8.91 µM
COCC(=O)NC1CCC12CCN(C(=O)CC1CCCCC1)CC2 (configuration not stated)	inactive
COc1ccc(/C=C\c2onc(C)c2S(=O)(=O)N2CCC(C(=O)Nc3ccc(Cl)cc3)CC2)cc1	inconclusive: 12.6 µM [inhibitor, partial curve, poor fit]
CC(C)(C)NC(=O)N1CC(c2noc(C3CCCN3CC3CC3)n2)C1 (configuration not stated)	inconclusive: 8.91 µM [inhibitor, partial curve, poor fit]
Cn1cccc1CN1CCC2(CC1)CC(=O)c1ccccc1O2	inconclusive: 2.51 µM [inhibitor, partial curve]
COCCOc1ccc2c(n1)CCN(C(=O)c1ccccc1OC)C2	inactive
Cc1cc(CN(C)C(=O)c2cc(COc3ccc(F)cc3F)on2)n[nH]1	inconclusive: 17.8 µM [inhibitor, single point]
COc1cccc(C(=O)N2CCC(N3C[C@H](O)C[C@H]3C(=O)Nc3ccc4c(c3)OCCO4)CC2)c1	inconclusive: 8.91 µM [inhibitor, partial curve, poor fit]
Cn1cnc(S(=O)(=O)NC2CCc3nn(CC4CC4)c(=O)n3CC2)c1 (configuration not stated)	inactive
CCC(=O)N1CCc2cc(Br)cc(S(=O)(=O)CCC(=O)N3CCN(c4ccccc4OC)CC3)c21	inconclusive: 7.08 µM [inhibitor, partial curve, poor fit]
O=C(CCC1CCCN(CCCn2cccn2)C1)Nc1ccc(C(F)(F)F)cc1 (configuration not stated)	inconclusive: 12.6 µM [inhibitor, single point]
COC[C@@H]1CN(C(=O)c2ccc(F)cc2Cl)C[C@H]1C(N)=O	inactive
O=C(c1ccccc1Cl)N1CCC2(CC1)CCN(CCc1ccccc1)c1ccccc1O2	inconclusive: 11.2 µM [inhibitor, single point]
Cc1nn(C(=O)c2ccccc2)c(C)c1Sc1ccc(Cl)cc1	active: 11.2 µM
CCCCc1ncc(CN(C)CC2CCCN(CCc3ccc(F)cc3)C2)[nH]1 (configuration not stated)	inconclusive: 3.16 µM [inhibitor, single point]
CCCNC(=O)[C@@H]1Cc2c[nH]c3cccc(c23)[C@H](CC(C)C)N1	inactive
O=C1CC(c2ccccc2)N(C(=O)CNC(=O)c2ccc3[nH]ccc3c2)CCCCCN1 (configuration not stated)	inconclusive: 1.58 µM [inhibitor, full curve, poor fit]
CCOC(=O)c1c(S(=O)(=O)N2CCCC(C(=O)N(C)Cc3ccccc3)C2)c(C)n(C)c1C (configuration not stated)	inconclusive: 10 µM [inhibitor, single point]
O=C(Nc1ccccc1)N[C@H]1C[C@H]2C(=O)NC[C@@H](CCC(=O)N3CCCCC3)N2C1	inactive
Cc1cccc(-n2c(-c3ccco3)nc3c(cnn3-c3ccccc3C)c2=O)c1	inactive
COc1ccc(-c2nc(Cn3c(SCc4cccc(Cl)c4)nc4ccncc43)c(C)o2)cc1	inconclusive: 11.2 µM [inhibitor, single point]

Structure (SMILES)	Potency
CC(C)COC(=O)N1CCCn2nc(-c3nc4ccccc4n3C)cc2C1	inconclusive: 8.91 µM [inhibitor, partial curve, poor fit]
Cc1cccc(Cn2c(C)c(C)c3cc(C(=O)NCc4ccco4)ccc32)c1	inconclusive: 14.1 µM [inhibitor, single point]
CS(=O)(=O)N1CCc2cc(S(=O)(=O)NCc3ccccc3Cl)ccc21	active: 3.16 µM
COc1ccc2[nH]c(=O)c(CN(C(=O)c3cccc(Cl)c3)c3ccccc3OC)cc2c1	inconclusive: 17.8 µM [inhibitor, single point]
CCOc1ccccc1C1NC(=O)N(CC(=O)Nc2ccc(OC)cc2)C2=C1C(=O)OC2 (configuration not stated)	inconclusive: 0.316 µM [inhibitor, full curve, poor fit]
COCCN1C(=O)CS(=O)C12CCN(C(=O)Nc1cccc(F)c1)CC2 (configuration not stated)	inactive
O=C1[C@@H]2C[C@@H](CN2Cc2ccccn2)Oc2ccccc2N1CC1CC1	inactive
O=C1Nc2ccccc2C12CCN(Cc1ccccc1)C2 (configuration not stated)	inconclusive: 15.8 µM [inhibitor, single point]
COCCNC(=O)C(NC(=O)c1cccs1)C1CCN(C(=O)c2cccs2)CC1 (configuration not stated)	inactive
CC(C)c1nncn1C1CCN(S(=O)(=O)c2ccc(Br)s2)CC1	inconclusive: 11.2 µM [inhibitor, single point]
CN(C)CCNC(=O)C1CC(=O)N(c2n[nH]c3ccccc23)C1 (configuration not stated)	inactive
COc1ccc(C)cc1NC(=O)C1CCN(c2cnc3nc(C)c(C)nc3c2)CC1	inconclusive: 2.51 µM [inhibitor, single point]
Cc1nccn1CCCC(=O)N1CC[C@](C)(O)[C@H](C)C1	inactive
O=C(NCCc1csc(-c2ccncc2)n1)C1CNCCO1 (configuration not stated)	inactive
Cc1ccc(C)c(C(O)Cn2ccn3nc(-c4cccs4)cc3c2=O)c1 (configuration not stated)	inconclusive: 3.55 µM [inhibitor, partial curve, poor fit]
O=C1CCCN1CCCN1C(=O)[C@H]2CN(Cc3cccc(Cl)c3)C[C@H]2C1=O	inactive
O=C1NC(C(=O)NC2CC2)Cn2cccc21 (configuration not stated)	inactive
COc1ccc(-c2cc3nc(N)cc(=O)n3[nH]2)cc1	inactive
CCN(C(=O)c1ccc2c(c1)N(Cc1cccc(Cl)c1)C(=O)c1ccccc1S2=O)c1ccccc1 (configuration not stated)	inconclusive: 11.2 µM [inhibitor, single point]
CC(=O)N1CCC(NC[C@@H]2C=C(C)[C@H](Cc3nc4ccncc4[nH]3)C[C@H]2C(C)C)CC1	inactive
CC(=O)NC[C@H]1CCN(Cc2cccc(Cl)c2)C[C@H]1N(C)C	inconclusive: 7.94 µM [inhibitor, partial curve, poor fit]
O=C(Nc1cccc(F)c1)c1cnc(-c2ccc(F)cc2)nc1-c1ccncc1	inconclusive: 12.6 µM [inhibitor, partial curve, poor fit]
CC(C)CNC(=O)c1ccc2c(c1)N(S(=O)(=O)c1ccccc1F)CC2	inconclusive: 0.282 µM [inhibitor, partial curve, poor fit]

Structure (SMILES)	Potency
Cc1ccc(NC(=O)N2CCc3c(C(=O)N(C)C)cccc32)cc1	inactive
COc1ccc(CN2CCC([C@@H]3CNC[C@H]3CO)CC2)c(OC)c1	inconclusive: 1.58 µM [inhibitor, partial curve, poor fit]
COCCN(C)C[C@@H]1CN(C(=O)c2sccc2Cl)C[C@@H]1CO	inactive
CCOc1ccc(NC(=O)CCCc2nc(-c3cccc(OC)c3)no2)cc1	inconclusive: 8.91 µM [inhibitor, partial curve]
CCc1noc(-c2ccn3c(CNC(=O)c4cccc(OC)c4)nnc3c2)n1	inactive
O=C1NCc2ccccc2CC12CCN(Cc1cccc(F)c1)C2 (configuration not stated)	inconclusive: 10 µM [inhibitor, single point]
COc1ccc(NC(=O)c2c(OC)cc(=O)n3c2CCCC3)c(OC)c1	inactive
CNC(=O)[C@@H]1CN(C(=O)c2ccc3c(c2)OCO3)C[C@H]1c1n[nH]c(C)n1	inactive
COc1nc2nc(CCc3ccccc3)n(C)c2cc1-c1cncnc1	inconclusive: 3.55 µM [inhibitor, full curve, poor fit]
O=C(NC1CCCCCC1)C1CCN(C(=O)N2CCOc3ccc(Cl)cc32)CC1	inconclusive: 17.8 µM [inhibitor, single point]
COc1ccc(-c2nc(C(C)C)nc3c2CCN([S+](=O)([O-])c2c(C)noc2C)CC3)cc1	inconclusive: 3.98 µM [inhibitor, single point]
COc1ncccc1-c1cnc2[nH]cc(CC(=O)Nc3cccnc3)c2c1	inconclusive: 10 µM [inhibitor, single point]
COc1ccc(NC(=O)[C@@H]2C[C@H](c3ccc(F)cc3)N(Cc3csc(C)n3)C2)c(C)c1	inconclusive: 5.62 µM [inhibitor, full curve]
CCCCc1nn2c(=O)cc(COC(=O)c3cccc(NC(=O)COc4ccccc4)c3)nc2s1	inconclusive: 3.55 µM [inhibitor, full curve]
Cc1ccc(C2=NN(CC(=O)NCCCN(CC(C)C)CC(C)C)C(=O)CC2)cc1	inconclusive: 11.2 µM [inhibitor, single point]
CCN(CC1CCN(C2CCN(C)CC2)CC1)C(=O)c1ccc(-c2ccccc2)cc1	active: 12.6 µM
CCc1ccccc1Nc1nn2c(=O)c3ccc(C(=O)NCc4ccc(C)cc4)cc3nc2s1	inconclusive: 12.6 µM [inhibitor, single point]
CCC(CC)NC(=O)C1CCc2nc(N3CCN(C(=O)C(C)C)CC3)sc2C1 (configuration not stated)	inconclusive: 0.282 µM [inhibitor, full curve, poor fit]
O=C1C[C@H]2CC[C@@H](CN1)N2Cc1ccc(OCc2ccccc2)cc1	inconclusive: 20 µM [inhibitor, single point]
CCS(=O)(=O)c1ccc2oc([C@H]3CCN(Cc4ccc(OC)cc4)C3)nc2c1	inconclusive: 8.91 µM [inhibitor, partial curve, poor fit]
FC(F)(F)c1cccc(-c2ncc[nH]2)c1	inconclusive: 25.1 µM [inhibitor, single point]
